Laboratory results from patent US20220348651A1, “ENTPD2 ANTIBODIES, COMBINATION THERAPIES, AND METHODS OF USING THE ANTIBODIES AND COMBINATION THERAPIES” (Novartis AG, priority 2019, published 2022).

Assays:
[1] = test system: cynomologus (cyno) ENTPD2; assay: Biacore (SPR) affinity to cyno ENTPD2 ECD; assay type: binding, cynomolgus monkey; settings: 25° C.
Method: (§1) Biacore Screening: Affinity was measured by determining the kinetic rate constants using surface plasmon resonance (SPR) on a Biacore T200 or T100 with the T200 sensitivity upgrade instrument (Biacore, GE Healthcare). Antibodies were captured on CM5 sensor chips (Biacore, GE Healthcare) prepared with a mouse anti-human IgG Fc antibody (ThermoFisher catalogue #05-4200) amine coupled to the surface. […] ENTPD2 analytes were allowed to associate for 180 s and dissociate for up to 1800 s depending on the off-rate of the antibody at a flow rate of 30 μL/min. The running buffer was PBS pH 7.2 (prepared from a Corning 10X stock, cat#46-013-CM)+0.05% Tween 20. Regeneration was accomplished with 30 s injections of 3 or 4 M MgCl2 to remove all the captured antibody and remaining complex from the surface, after which fresh antibody was captured. The raw data were analyzed using Biacore T200 Evaluation Software version 1.0 and fit to a 1:1 binding model, with all parameters set to fit globally except for RI, which was set to fit locally.

[2] = Cynomolgus monkey single and multiple dose pharmacokinetics; settings: for Cmax: male cynomolgus monkey, i.v.
H520 cells = assay: Cross reactivity: FACS binding to H520 cells (ENTPD3 and ENTPD8 expression); set-up: species or system human; settings: 50 nM antibody
Method: FACS screening: Specific binding of candidate antibodies to endogenously expressed ENTPD2 was assessed by flow cytometry. Cells were rinsed thoroughly with 1×PBS and treated with Accutase (Millipore #SCR005) to lift from growth plates and resuspended at approximately 1×10^5 cells/90 μL in 1× FACS buffer (2% FBS+0.1% NaN3 in PBS). In a 96-well U-bottom plate, 10 μL of 10× antibody solution in FACS buffer was pre-seeded and 90 μL of cell suspension was added. Cell were incubated for 30 minutes at 4° C., washed 1× with cold PBS and resuspended in 100 μL of 1:500 secondary antibody 1× FACS buffer (Allophycocyanin conjugated F(ab′)2 goat anti-human IgG, Fcγ specific; Jackson Immunoresearch, Cat#109-136-098). After additional incubation for 15 min at 4° C., cells were washed twice with PBS and resuspended in 100 μL of 1×FACS buffer with 4 μg/mL propidium iodide (Life Technologies, Cat#P3566). Geometric mean fluorescence intensity was calculated on live single cells using FlowJo software.
H520 cells were identified as a cancer cell line with ENTPD3 (Ct 25) and ENTPD8 (Ct 26) expression by Taqman and were used for selectivity screening.

[3] = Anti-drug antibody (ADA) formation in cynomolgus monkey PK study; assay type: in vivo
Source text: Anti-drug antibody (ADA) formation was also examined in this study.

[4] = test system: human ENTPD2 engineered B16LM3 clone B5; assay: Human ENTPD2 engineered B16LM3 clone B5 model, dose response with anti-PD-1 Ab; assay type: in vivo
Source text: This model was derived from the B16LM3 melanoma model, where endogenous mouse ENTPD2 expression was knocked out via a transient electroporation of CAS9 protein with CRISPR guide RNA sequences against mouse ENTPD2, and human ENTPD2 was overexpressed using a retroviral transduction approach.
Once tumors reached approximately 35-50 mm^3, mice were randomized according to tumor volume into treatment groups (n=8 per group). […] All doses were adjusted to individual mouse body weights.

[5] = cynomolgus monkey, in vivo, iv
human ENTPD2 = target: T1, human ENTPD2 (Homo sapiens, UniProt Q9Y5L3); assay: Biacore (SPR) affinity to human ENTPD2 ECD; assay type: binding; settings: 25° C.
T1 construct: residues 29-462 of human or cyno ENTPD2 were cloned into expression vector; GP67 signal peptide (N); made in house; host or cells: High Five (Trichoplusia ni) insect cells, baculovirus
T1 sequence (Q9Y5L3 29-462): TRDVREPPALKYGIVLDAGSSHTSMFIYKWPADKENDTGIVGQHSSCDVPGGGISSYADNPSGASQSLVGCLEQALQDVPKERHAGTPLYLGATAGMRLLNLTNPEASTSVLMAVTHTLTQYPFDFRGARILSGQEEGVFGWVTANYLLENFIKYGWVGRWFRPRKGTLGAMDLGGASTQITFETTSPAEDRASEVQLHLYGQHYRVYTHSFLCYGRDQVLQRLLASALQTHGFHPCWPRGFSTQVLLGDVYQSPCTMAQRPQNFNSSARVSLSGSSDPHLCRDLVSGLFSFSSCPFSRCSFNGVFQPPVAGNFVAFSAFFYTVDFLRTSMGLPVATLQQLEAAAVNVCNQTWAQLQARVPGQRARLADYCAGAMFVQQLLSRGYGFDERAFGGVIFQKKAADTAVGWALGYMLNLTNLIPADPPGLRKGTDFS
Method: as §1

[6] = 10 to 100 mg/kg i.v. (10-fold increase in dose), plasma
[7] = single i.v. dose, 3 to 10 mg/kg (3.3-fold increase in dose), plasma
[8] = Day 7, mAb 10 mg/kg dosed D1, no anti-PD-1 Ab

B1: mAb1: humanized anti-human ENTPD2 human IgG1 from mAb17; heavy chain SEQ ID NO: 12, light chain SEQ ID NO: 23 (antibody)
heavy: EVQLVQSGAEVKKPGESLKISCKASGYTFTDYNMDWVRQMPGKGLEWMGDINPKYDISTYNQQFKGQVTISADKSIRTAYLQWSSLKASDTAMYYCARRGFFLYYGINYYYFDVWGQGTLVTVSSASTKGPSVFPLAPSSKSTSGGTAALGCLVKDYFPEPVTVSWNSGALTSGVHTFPAVLQSSGLYSLSSVVTVPSSSLGTQTYICNVNHKPSNTKVDKRV[here human IgG1 Fc without letters]
light: DIQLTQSPSSLSASVGDRVTITCSASSSVSYIHWFQQKPGKAPKLLIYSTSNLASGVPSRFSGSGSGTFFTLTISSLQPEDFATYFCHQWSSYPWTFGQGTKVEIKRTVAAPSVFIFPPSDEQLKSGTASVVCLLNNFYPREAKVQWKVDNALQSGNSQESVTEQDSKDSTYSLSSTLTLSKADYEKHKVYACEVTHQGLSSPVTKSFNRGEC
- ka [1]: 360000 M⁻¹ s⁻¹
- kd [1]: 0.0012 s⁻¹
- plasma clearance ([2]; 3 mg/kg i.v.): approximately 12 mL/day/kg
- plasma clearance ([2]; 10 mg/kg i.v.): approximately 7 mL/day/kg
- increase in AUC(0-336 h) [2, 6]: approximately 9.5 -fold
- increase in AUC(0-inf) [2, 6]: approximately 9.5 -fold
- plasma clearance ([2]; dose range 10 to 100 mg/kg i.v.): approximately 7 ml/day/kg
- Cmax ([2]; 3 mg/kg, Study Day 1, mean n = 3): 100 µg/mL
- Cmax ([2]; 10 mg/kg, Study Day 1, mean n = 3): 352 µg/mL
- Cmax ([2]; 10 mg/kg, Study Day 15 (second dose), mean n = 3): 374 µg/mL
- increase in AUC(0-inf) [2, 7]: 5.9 -fold
- increase of AUC(0-336 h) [2, 7]: 5.3 -fold
- Apparent FACS binding at 50 nM (H520 cells): No binding
- ADA detected (animals) ([3]; 3, 10, 30 and 100 mg/kg i.v.): one (10 mg/kg) of nine animals
- effect of ADA on plasma exposure ([3]; ADA-positive animal): reduced the plasma exposure
- ΔT/ΔC ([4]; 0.1 mg/kg i.v. day 1, combination with anti-PD-1 Ab fixed dose 10 mg/kg, Day 7): 33.4%
- ΔT/ΔC ([4]; 1 mg/kg i.v. day 1, combination with anti-PD-1 Ab fixed dose 10 mg/kg, Day 7): 35.7%
- ΔT/ΔC ([4]; 10 mg/kg i.v. day 1, combination with anti-PD-1 Ab fixed dose 10 mg/kg, Day 7): 18.4%
- tumor growth ([4]; B16 syngeneic cell line expressing human ENTPD2, combined with an anti-PD-1 antagonistic mAb): delayed tumor growth
- Host Response Δ body weight [4, 8]: −0.2%
- Tumor Response ΔT/ΔC [4, 8]: 71.7%
- anti-tumor efficacy ([4]; as single agents, i.v. day 1): No significant anti-tumor efficacy
- AUC(0 − 336 h)/D [5]: 3′160 μg*h/mL/mg/kg
- AUC(0 − inf)/D [5]: 4′083 μg*h/mL/mg/kg
- Cmax/D [5]: 32 µg/mL/mg/kg
- AUC(0 − 336 h)/D ([5]; 3 mg/kg): 1′894 μg*h/mL/mg/kg
- AUC(0 − inf)/D ([5]; 3 mg/kg): 2′042 μg*h/mL/mg/kg
- Cmax/D ([5]; 3 mg/kg): 33 µg/mL/mg/kg
- AUC(0 − 336 h)/D ([5]; 30 mg/kg): 3′145 μg*h/mL/mg/kg
- AUC(0 − inf)/D ([5]; 30 mg/kg): 3′811 μg*h/mL/mg/kg
- Cmax/D ([5]; 30 mg/kg): 42 µg/mL/mg/kg
- ka (human ENTPD2): 110000 M⁻¹ s⁻¹
- kd (human ENTPD2): 0.00019 s⁻¹

Read-outs that look alike come from different tables or passages of the source.
